Test results published in PubChem BioAssay AID1460 (National Center for Advancing Translational Sciences (NCATS), 2008).
Out of some 270,000 compounds screened, about 5,800 (2.1%) were called active. The inconclusive results got no clear call from the source; some entries with a clear call stand among them for comparison. The call rests on the fitted dose curve; in most records, active means well fitted inhibition curve with a large enough effect; inconclusive means small, poorly fitted or top-dose-only effect; inactive means flat fitted curve, though single readings scatter. Where the call is inconclusive, the potency comes from a doubtful curve fit.

Molecular target: Microtubule-associated protein tau (Homo sapiens) (UniProt P10636)
Sequence of UniProt P10636 (P10636 whole entry, looked up): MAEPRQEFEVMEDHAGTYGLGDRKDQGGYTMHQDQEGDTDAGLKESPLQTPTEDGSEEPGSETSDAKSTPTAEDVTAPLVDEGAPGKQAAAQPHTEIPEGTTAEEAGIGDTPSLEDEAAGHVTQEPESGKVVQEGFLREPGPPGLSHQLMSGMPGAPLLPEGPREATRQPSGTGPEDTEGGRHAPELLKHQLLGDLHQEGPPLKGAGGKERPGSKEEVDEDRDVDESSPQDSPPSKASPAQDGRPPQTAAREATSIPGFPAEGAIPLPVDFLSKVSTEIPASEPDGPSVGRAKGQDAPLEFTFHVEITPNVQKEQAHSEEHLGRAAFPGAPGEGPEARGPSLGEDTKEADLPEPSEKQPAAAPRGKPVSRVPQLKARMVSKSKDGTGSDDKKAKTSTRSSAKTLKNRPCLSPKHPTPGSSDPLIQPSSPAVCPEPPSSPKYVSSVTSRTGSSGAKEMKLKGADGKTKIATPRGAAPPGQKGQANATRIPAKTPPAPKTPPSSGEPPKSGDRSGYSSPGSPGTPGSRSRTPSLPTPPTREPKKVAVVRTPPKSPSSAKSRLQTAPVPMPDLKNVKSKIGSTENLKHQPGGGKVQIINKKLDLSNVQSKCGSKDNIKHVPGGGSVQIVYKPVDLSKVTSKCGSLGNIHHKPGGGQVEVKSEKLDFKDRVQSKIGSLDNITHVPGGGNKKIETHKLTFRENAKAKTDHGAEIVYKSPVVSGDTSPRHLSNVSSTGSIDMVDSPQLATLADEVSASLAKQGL
Assay: qHTS for Inhibitors of Tau Fibril Formation, Thioflavin T Binding; further: nearly all actives have a fitted effect of over 55% in size
Details: recombinant tau K18 P301L (four-repeat tau fragment), heparin-induced fibrillization, ThT fluorescence; series mostly up to 57.4 µM; activity, negative = inhibition: at the top concentration
How it was run: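 Heparin-induced (20 uM) aggregation of recombinant human K18 P301L tau, 15 uM unlabeled with 0.24 uM labeled, pH 7 acetate buffer, 6 hr at 37 C with compound. Fibrils quantified by 30 uM ThT fluorescence after 1 hr ambient incubation.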
On the % scale 0 is the no-effect control and ±100 the full control effect; potency means the concentration at half of the fitted maximal effect; tags describe the fitted curve by direction and shape.

Compound	Potency	activity, negative = inhibition
Cc1ccc(OCc2nnc(SCc3nc4ccccc4[nH]3)n2Cc2ccco2)cc1	inconclusive: 39.8 µM [inhibitor, single point]	
COc1ccc(N2CCN(C(=O)CCS(=O)(=O)c3cccc4nsnc34)CC2)cc1	inconclusive: 14.1 µM [inhibitor, partial curve]	
C/C(=C\C(=O)c1ccc(Br)cc1)Nc1ccc(Cl)cc1		inactive: 12.9%
NS(=O)(=O)c1ccc(N=Nc2c(O)ccc3ccccc23)cc1	active: 1.12 µM	
CCCC(=O)Nc1sc(C(=O)Nc2cccc(N)c2)c(C)c1C(=O)OC	inconclusive: 17.8 µM [inhibitor, partial curve]	
CC1CCN(C(=O)C2CCN(S(=O)(=O)c3cccnc3)CC2)CC1		inactive: -4.27%
Cc1c(C(=O)NCc2ccccn2)oc2ccc(S(=O)(=O)N3CCC4(CC3)OCCO4)cc12	inconclusive: 17.8 µM [inhibitor, partial curve, poor fit]	
COc1cc(CC(=O)Nc2cccc(SC)c2)cc(OC)c1OC		inactive: -5.06%
CCOc1ccc(NC(=S)N2CCN(c3ccc(N4CCOCC4)nn3)CC2)cc1	inconclusive: 5.01 µM [inhibitor, partial curve]	
Cn1cc(C(=O)N/N=C/C(Br)=C/c2ccccc2)ccc1=O	inconclusive: 25.1 µM [inhibitor, partial curve, poor fit]	
CCOc1ccc(OCC)c(NC(=O)C2C3C=CC(O3)C2C(=O)NCc2ccco2)c1 (stereo unspecified)	inconclusive: 0.398 µM [inhibitor, full curve, poor fit]	
CCOC(=O)c1nn(-c2cccc(C)c2)c2nnc(Cc3ccc(C)cc3)c(=O)n12		inactive: -2.73%
NCC1O[C@@H](O[C@H]2C(O)C(O[C@@H]3C(O[C@H]4OC(CO)C(O)C(O)C4N)C(N)CC(N)[C@H]3O)O[C@@H]2CO)C(N)C(O)C1O (stereo partly specified)		inactive: -2.96%
O=C(COC(=O)CCCc1c[nH]c2ccccc12)Nc1ccc2c(c1)OCO2	inconclusive: 11.2 µM [inhibitor, partial curve]	
CCC(=O)N1c2ccc(S(=O)(=O)CCC(=O)N3CCN(c4cc(C)ccc4C)CC3)cc2CC1C (stereo unspecified)	inconclusive: 11.2 µM [inhibitor, partial curve]	
CC(=O)c1ccc(NC(=O)CSc2nc3nc(C)cc(C)n3n2)cc1	inconclusive: 6.31 µM [inhibitor, partial curve]	
O=C(/C=C/c1ccco1)N/C(=C\c1ccco1)C(=O)NCCc1nc2ccccc2[nH]1	inconclusive: 14.1 µM [inhibitor, partial curve]	
Cc1cc(C)cc(NC(=O)N2CCC(CN3CCCCCC3)CC2)c1	inconclusive: 44.7 µM [inhibitor, single point]	
CN1CCN(c2ncnc3c2c(-c2ccccc2)cn3-c2ccc(F)cc2)CC1		inactive: -13.8%
Cc1noc(/C=C/N(C)C)c1S(=O)(=O)N(C)CC(=O)NC1CCCCC1	inconclusive: 39.8 µM [inhibitor, single point]	
COc1ccc(OC)c(/C(O)=C/C(=O)C(=O)Nc2cc(C)cc(C)c2)c1	inconclusive: 28.2 µM [inhibitor, partial curve]	
O=C(O)CCCN1C(=O)/C(=C\c2ccco2)SC1=S	active: 22.4 µM	

Compound	Potency	activity, negative = inhibition
O=C(Nc1ccc(N2CCN(C(=O)C3CC3)CC2)cc1)c1cccs1	inconclusive: 2.51 µM [inhibitor, partial curve]	
CCOC(=O)N1CCC(N2C(=O)c3ccccc3C2Nc2ccc3c(c2)OCCO3)CC1 (stereo unspecified)	inconclusive: 14.1 µM [inhibitor, partial curve]	
O=C(Cc1coc2cc3c(cc12)CCC3)OCc1cc(=O)n2c(n1)sc1ccccc12		inactive: -16.2%
Cc1ccc(/C=C2\SC(=S)N(c3cccnc3)C2=O)cc1	inconclusive: 3.98 µM [inhibitor, full curve, poor fit]	
Nc1nc(-c2ccco2)cs1	inconclusive: 39.8 µM [inhibitor, single point]	
COC(=O)N/N=C/c1ccc(-c2ccc(C)c(Cl)c2)o1	inconclusive: 3.16 µM [inhibitor, full curve]	
Cc1cccc(NC(=O)CC2SC(=O)N(c3ccccc3)C2=O)c1 (stereo unspecified)	inconclusive: 12.6 µM [inhibitor, partial curve]	
O=C(NN1C(=O)C2C(c3ccccc3)C=CC(c3ccccc3)C2C1=O)c1cccc(Br)c1 (stereo unspecified)	inconclusive: 22.4 µM [inhibitor, single point]	
CC(C)c1cc(Nc2cccc(O)c2)cc(C(C)C)c1O	active: 31.6 µM	
O=[N+]([O-])c1ccc(Sc2nccn2Cc2ccccc2)c([N+](=O)[O-])c1	inconclusive: 28.2 µM [inhibitor, partial curve, poor fit]	
CS(=O)(=O)c1ccc(C(=O)OCC(=O)NC(=O)C2CCCCC2)cc1[N+](=O)[O-]	inconclusive: 15.8 µM [inhibitor, partial curve]	
COc1ccc(N2CCN(c3cnc4ccccc4n3)CC2)cc1	inconclusive: 15.8 µM [inhibitor, partial curve]	
CCN(CC)CC(=O)c1ccc(-c2ccccc2)cc1	inconclusive: 14.1 µM [inhibitor, partial curve]	
COC(=O)/C(=C(/F)Sc1cc(C)c(O)c(C)c1)C(F)(F)F	inconclusive: 39.8 µM [inhibitor, single point]	
COc1ccc(N=Cc2sc(O)c3ccccc23)cc1	inconclusive: 0.562 µM [inhibitor, full curve]	
Cc1c(CCNC(=O)c2ccc(Br)o2)sc2nc(-c3ccc(Cl)cc3)nn12	inconclusive: 1 µM [inhibitor, partial curve, poor fit]	
Cc1ccc(C(=O)N2CCCCC2)cc1NC(=O)c1nsc2ccccc12	inconclusive: 17.8 µM [inhibitor, partial curve, poor fit]	
C=CCn1c(NC(=O)c2ccc(Br)o2)c(C(=O)OCC)sc1=S	inconclusive: 20 µM [inhibitor, partial curve]	
COc1ccc(NS(=O)(=O)c2ccc(N/N=C(\C)c3ccncc3)c([N+](=O)[O-])c2)cc1		inactive: 1.92%
O=C(CSc1nc2nccnc2c(=O)n1CCc1c[nH]c2ccccc12)Nc1ccccc1	inconclusive: 5.01 µM [inhibitor, partial curve, poor fit]	
C=CCC1CCCCC12NC(=O)N(c1ccccc1)N2 (stereo unspecified)	inconclusive: 25.1 µM [inhibitor, single point]	
COc1ccc(Cn2c(C)c(C)c(C#N)c2NC(=O)Nc2ccccc2)cc1	inconclusive: 22.4 µM [inhibitor, partial curve]	

Compound	Potency	activity, negative = inhibition
O=C(NCCCn1ccnc1)c1cc2nc(-c3ccc(Br)cc3)cc(C(F)(F)F)n2n1	inconclusive: 12.6 µM [inhibitor, partial curve]	
CCOC(=O)C1=C(C)NC(=O)CC1c1cc2c(cc1[N+](=O)[O-])OCO2 (stereo unspecified)	active: 22.4 µM	
CC(=O)Sc1nc(-c2ccccc2)[nH]c1S(=O)(=O)c1ccc(C)cc1	active: 28.2 µM	
S=c1ccss1	inconclusive: 15.8 µM [inhibitor, partial curve]	
COCCn1c(C)cc(C(=O)COC(=O)c2ccc(NC(=O)CC#N)cc2)c1C	inconclusive: 1 µM [inhibitor, partial curve, poor fit]	
O=C(NCC(c1cccs1)N1CCOCC1)c1ccccc1NS(=O)(=O)c1cc([N+](=O)[O-])ccc1Cl (stereo unspecified)	inconclusive: 15.8 µM [inhibitor, partial curve]	
Cc1cc(C)cc(-n2c(C)c3c(C)nnc(C)c3c2C)c1	inconclusive: 17.8 µM [inhibitor, single point]	
CCOC(=O)c1sc(=S)n(C)c1NC(=O)c1ccccc1Cl		inactive: -8.54%
C=C(C(=O)c1ccccc1)C(C)C(=C)C(=O)c1ccccc1	active: 28.2 µM	
O=C1c2ccccc2C(=O)C1c1ccc2ccccc2n1	active: 2.24 µM	
CC1=C(CC(=O)O)c2cc(F)ccc2/C1=C\c1ccc(S(C)(=O)=O)cc1	inconclusive: 8.91 µM [inhibitor, partial curve]	
CC(=O)C1=C(O)C(=O)N(c2ccc(S(N)(=O)=O)cc2)C1c1cccc([N+](=O)[O-])c1 (stereo unspecified)		inactive: -13%
C=CCn1c(CCC(O)COCCCCC)n[nH]c1=S (stereo unspecified)		inactive: -4.32%
Cc1ccc(N/C(C(Cl)=C(Cl)Cl)=C(/Cl)[N+](=O)[O-])c(C)c1	inconclusive: 31.6 µM [inhibitor, partial curve, poor fit]	
OC1(CN2CCOCC2)C2CN3CCN(C2)CC1(c1ccccc1)C3 (stereo unspecified)		inactive: 0.28%
COc1ccc(-c2n[nH]c(C)c2-c2cnn(-c3ccccc3)c2)c(O)c1		inactive: -14.7%
O=[N+]([O-])c1cc(S(=O)(=O)NC2=NCCCCC2)ccc1NCC1CCCCC1	inconclusive: 25.1 µM [inhibitor, partial curve]	
COc1ccccc1C1CCN(c2ccc(CO)cc2[N+](=O)[O-])CC1	active: 14.1 µM	
Clc1nc(-c2cccnc2)nc2scc(-c3ccccc3)c12	inconclusive: 25.1 µM [inhibitor, single point]	
COc1ccc(-c2csc(NC3=NCCCCC3)n2)cc1	inconclusive: 11.2 µM [inhibitor, partial curve]	
Cc1cc(C)c(-c2n[nH]c3c2C(c2ccccc2F)N(Cc2ccco2)C3=O)c(O)c1 (stereo unspecified)	inconclusive: 14.1 µM [inhibitor, partial curve]	
O=C(CC(C(=O)N1CCc2ccccc21)n1ccnc1)N1CCc2ccccc2C1 (stereo unspecified)	inconclusive: 10 µM [inhibitor, partial curve, poor fit]	
